The structures appear in SMILES notation. Out of some 50,000 compounds screened, about 800 (1.6%) showed an effect of 50% or more. This is one part of the list.

The assay concerns the target Bcl-2-like protein 10 (Homo sapiens) (UniProt Q9HD36). Nature of the assay: TR3 peptide-Bcl-B binding displacers, biochemical primary FP assay, phenotype converters (AID 1240).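 Also: 0% = Bcl-B with tracer peptide and DMSO and 100% = tracer peptide lacking Bcl-B.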 The conditions noted are these: GST-Bcl-B / FITC-TR3 peptide fluorescence polarization; stronger effect = higher value; compound at 3.75 mg/L.
Chain of UniProt Q9HD36 (Q9HD36 whole entry, looked up): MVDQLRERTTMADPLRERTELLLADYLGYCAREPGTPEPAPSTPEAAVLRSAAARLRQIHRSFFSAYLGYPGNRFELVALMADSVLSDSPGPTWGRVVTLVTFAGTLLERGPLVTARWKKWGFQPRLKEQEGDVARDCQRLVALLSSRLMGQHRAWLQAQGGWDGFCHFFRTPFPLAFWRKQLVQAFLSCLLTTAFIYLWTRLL
With `CCCCOc1ccc(N2C(=O)C3CC(C)=C(C)CC3C2=O)cc1` (stereo unspecified), the displacement is -0.7%. With `CCN(CC)C(=S)S/C=C/C(=O)c1ccccc1`, the displacement is -9.8%. On to `CC1=C(C(=O)OCCOc2ccccc2)C(c2cccs2)C2=C(CCCC2=O)N1` (stereo unspecified), for which the displacement was -10.1%. With `CC(=O)Nc1ccc(C(=O)Nc2ccc(Br)cc2F)cc1`, the displacement came to 15.4%. Regarding `CS(=O)(=O)N(CC(=O)Nc1ccc(Oc2ccccc2)cc1)c1cccc(Cl)c1`, the displacement was determined as 2.4%. As to `COc1ccc(N/N=C(/C#N)C(=N)N2CCCCCC2)cc1`, the displacement was 0.3%. For the compound `CN1/C(=C/C(=O)Nc2ccccc2)c2ccccc2CC12CCCCC2`, the displacement stood at 5%. As for `CN(/N=C/c1cccc(Oc2ccccc2)c1)c1ccccc1`, the figure is 12.6%. Turning to `C/C(=C\C(=O)c1ccncc1)Nc1ccccc1O`, the displacement is 13.1%. `COc1ccc(NS(=O)(=O)c2ccc(OC)c(Br)c2)c(OC)c1`: the displacement was 7.6%. To `CC1=NN(c2ccc(S(N)(=O)=O)cc2)C(=O)/C1=C\c1cccs1` belongs -1.4%.

`O=C(Nc1ccc(S(=O)(=O)Nc2nccs2)cc1)c1cccc(F)c1`: the displacement stood at 0.4%.

For `COc1ccccc1NC(=O)C1=C(C)NC(=S)NC1c1ccc(C)cc1` (stereo unspecified), the displacement worked out at 6.8%.

As for `COC(=O)CNC(c1ccccc1)c1cc(Br)ccc1NC(=O)CN1CCOCC1` (stereo unspecified), the displacement was -12.7%. As to `COc1ccc(/C=C2\SC(=S)N(CC(=O)OCCN(C)C)C2=O)cc1`, the displacement was 17.8%. As for `COc1cccc(C2NC(=S)NC(C)=C2C(=O)Nc2cccc(C)c2)c1OC` (stereo unspecified), the figure is 3.9%; as for `COC(=O)c1sc(NC(=O)c2ccccc2OC)c(C(=O)OC)c1C`, -1.5%.

In the case of `O=C(N=Nc1c(O)[nH]c2ccc(Br)cc12)c1cccnc1`, the displacement stood at 2%. Take `COc1ccc(N(CC(=O)N/N=C/c2cccs2)S(=O)(=O)c2ccc(OC)c(OC)c2)cc1`: the displacement was -6.3%. To `CC(C)NC(=O)c1ccc(C(C)C)cc1` belongs 2.3%; to `COc1cccc(/C=N/NC(=O)C(=O)Nc2cccc(OC)c2)c1`, 5.7%. `COc1cc(/C=C2\C(=O)NC(=O)N(c3ccc(Br)c(C)c3)C2=O)cc([N+](=O)[O-])c1O`: the displacement is -6.2%. Take `COc1cc(C(=O)N2CCN(Cc3cccc(Oc4ccccc4)c3)CC2)cc(OC)c1OC`: the displacement turned out to be 132%. As for `COc1ccc(N(CC(=O)NCc2ccncc2)S(=O)(=O)c2ccc(OC)c(OC)c2)cc1`, the figure is 10.7%; as for `COc1cccc(C(=O)/C=C/c2ccc(OC)cc2OC)c1`, -11.5%.

Turning to `O=C(NN1C(=O)/C(=C/c2c(Cl)cccc2Cl)SC1=S)c1ccccc1O`, the displacement came out at 43%. As for `COC(=O)c1c(NC(=O)c2cccc(OC)c2)sc2c1CCCC2`, the figure is 2.5%. To `O=C(Cc1ccc(Cl)cc1)NN1C(=O)c2ccccc2C1=O` belongs -7.2%; to `COc1ccc(/C(N)=N/OC(=O)c2ccc(C(C)(C)C)cc2)cc1OC`, 3.7%. As for `Cc1ccc(OCCOc2ccc(Cl)cc2C=C2C(=O)NC(=S)NC2=O)cc1`, the figure is -7.7%; as for `CCOc1ccc(N(CC(=O)Nc2cc(C)ccc2C)S(C)(=O)=O)cc1`, -4.1%. On to `O=C(O)CCC1NC(=S)N(c2ccccc2)C1=O` (stereo unspecified), for which the displacement came out at 3.1%. Consider `COc1ccc(/C=C2\C(=O)NC(=O)N(c3ccccc3)C2=O)c(C)c1`, for which the displacement was 17.2%.

Take `Cc1ccc[n+](C[n+]2cccc(C)c2)c1`: the displacement was determined as 5.3%. Take `COc1cc(/C=C2/C(=O)NC(=O)N(c3ccc(C(C)C)cc3)C2=O)cc(OC)c1O`: the displacement was -7.9%. On to `CCOC(=O)C1=C(C)N=c2s/c(=C/c3cccc([N+](=O)[O-])c3)c(=O)n2C1c1ccccc1Cl` (stereo unspecified), for which the displacement stood at 10.2%. To `Cc1ccc(N2C(=O)NC(=O)/C(=C\c3ccc(OCc4cccc(C(=O)O)c4)cc3)C2=O)cc1` belongs 5.5%; to `O=C(CCN1C(=O)c2cccc([N+](=O)[O-])c2C1=O)NCC1CCCO1` (stereo unspecified), -3.9%. As for `Cc1ccc(C2CC(C(F)(F)F)n3ncc(C(=O)Nc4cccc(Cl)c4)c3N2)cc1` (stereo unspecified), the figure is 4.5%.

Turning to `O=C(CCc1ccccc1O)N/N=C/c1cc([N+](=O)[O-])ccc1N1CCOCC1`, the displacement was -12%.

For the compound `CCOC(=O)CCCSc1nc2sc3c(c2c(=O)n1-c1ccccc1)CCCC3`, the displacement was -2.8%. To `O=C(NC(=S)Nc1sc2c(c1C(=O)O)CCC2)c1ccccc1` belongs 5.3%. With `Cc1ccccc1-c1nnc(NC(=O)Nc2ccccc2)s1`, the displacement was 12%. As for `CN1CCN(c2ccc([N+](=O)[O-])cc2/C=N/NC(=O)c2cccc([N+](=O)[O-])c2)CC1`, the figure is -14.6%; as for `COc1ccc(Cl)cc1NC(=O)C(=O)NCc1ccc(C)cc1`, -7.7%; as for `Cc1nonc1NC(=O)CN1CCCC1`, 15%. For `O=C1CC(c2ccccc2)CC2=C1C(c1ccco1)Nc1ccccc1N2` (stereo unspecified), the displacement is 10.8%. As for `O=C(O)C1C(C(=O)Nc2ccccc2F)C2C=CC1C21CC1` (stereo unspecified), the figure is -4.5%; as for `CCOc1ccc(NC(=O)c2c(NC(=O)c3ccc([N+](=O)[O-])cc3)sc3c2CCC3)cc1`, 10.6%; as for `COc1ccc(NC(=O)c2ccc(CN3CCN(Cc4ccccc4)CC3)cc2)c(OC)c1`, 7%. For `COc1ccc2ccccc2c1/C=C1\SC(=S)N(Cc2ccccc2)C1=O`, the displacement is -4%.

Regarding `Cc1occc1C(=O)N/N=C/C1CC=CCC1` (stereo unspecified), the displacement was found to be 0%.

Turning to `Cc1ccc(C(=O)N/C(=C\c2ccc(Cl)cc2)C(=O)NCc2ccncc2)cc1`, the displacement was 7.1%. As for `C=CCN1C(=O)NC(=O)/C(=C/c2ccc(OC)c(OCc3ccc(Cl)cc3)c2)C1=O`, the figure is 2.5%. Turning to `Cc1ccc2c(c1)NC(c1ccc(Cl)cc1)C1=C(CC(C)(C)CC1=O)N2` (stereo unspecified), the displacement came to 0.9%.

Consider `O=C(NCCN1CCOCC1)c1cc(-c2ccc(Cl)cc2)nc2ccccc12`, for which the displacement amounted to 0.8%. To `CN(C)c1cccc(NC(=O)c2ccccc2-c2ccccc2)c1` belongs 4%. To `O=[N+]([O-])c1ccc(COc2ccc(/C=N/Nc3nc4ccccc4s3)cc2)cc1` belongs 3.8%. To `COc1ccccc1NC(=O)c1c(NC(=O)c2cc([N+](=O)[O-])ccc2Cl)sc2c1CCCC2` belongs 13.8%. For `COc1cc(NS(=O)(=O)c2ccc(Cl)cc2)cc(OC)c1`, the displacement worked out at 41.2%. To `CCN1C(=O)/C(=C/c2ccc(OC(=O)c3cccc(C)c3)c(OC)c2)SC1=S` belongs 11.6%; to `CCOc1ccc(N(Cc2ccc(C(=O)NC(C)CC)cc2)S(=O)(=O)c2ccc(C)cc2)cc1` (stereo unspecified), -5.2%.

On to `CC(C)(C)SCC(O)Cn1c2ccccc2c2ccccc21` (stereo unspecified), for which the displacement is -4.7%. Regarding `CCC(=O)Oc1cc2oc(=O)cc(C)c2cc1CC`, the displacement is -3.8%. In the case of `C/C(=N\N=C(/N)SC1CC(=O)N(c2cccc(Cl)c2)C1=O)c1ccc(F)cc1` (stereo unspecified), the displacement is -19.2%. On to `CCOC(=O)c1ccc(NCCC(=O)c2cccs2)cc1`, for which the displacement is -12.3%. As for `N#C/C(=C\c1cc([N+](=O)[O-])c(N2CCOCC2)cc1N1CCOCC1)c1nc2ccccc2[nH]1`, the figure is 6.9%. With `COc1ccc(OC)c(/C=C/C(=O)NCC2CCCO2)c1` (stereo unspecified), the displacement is 11%. To `O=[N+]([O-])c1ccc(N2CCN(S(=O)(=O)Cc3ccccc3)CC2)c(Cl)c1` belongs 9.1%. As for `CCc1cccc(C)c1NC(=O)c1cccc(C)c1`, the figure is -12.3%; as for `CCOc1ccc(N2C(=O)/C(=C/c3ccc(OCc4cccc(C(=O)O)c4)cc3)C(=O)NC2=S)cc1`, 10.7%; as for `COc1ccc(C2=C/C(=C/c3ccc(I)o3)C(=O)O2)cc1`, 44.1%. For `CN1C(=O)/C(=C2\SC(=S)N(CC(=O)O)C2=O)c2ccccc21`, the displacement came to 17.9%.

As for `Cc1ccc(CN2CCN(/N=C\c3cccc([N+](=O)[O-])c3)CC2)cc1`, the displacement was -8.4%. As for `Cc1ccc(NC(=O)c2ccc(I)cc2)cc1Cl`, the figure is 9.1%; as for `Cc1cc(I)ccc1NC(=O)c1cccnc1`, -10.7%. With `S=c1oc(-c2ccccc2Cl)nn1CNc1ccccc1Cl`, the displacement is -23.2%. As to `CC(C)(C)C(=O)Nc1sc2c(c1C(=O)Nc1cccc3ccccc13)CCC2`, the displacement was -5.2%. Turning to `C=CCSc1nnc(-c2ccccc2)o1`, the displacement is -9.3%.

Regarding `CCO/N=C(\c1nonc1N)N1CCOCC1`, the displacement came out at 4.2%. To `O=S(=O)(Nc1ccccc1)c1ccc2c(c1)OCCO2` belongs -10.1%. Take `O=S(=O)(CCc1nc2ccccc2o1)c1ccc2ccccc2c1`: the displacement was -13.2%.

Take `COc1ccccc1C(=O)N/N=C/c1ccc(N2Cc3cc(C)c(C)cc3C2)cc1`: the displacement was -3.4%.

Consider `COc1ccc(S(=O)(=O)n2cnc3ccccc32)cc1OC`, for which the displacement came out at 0%. To `CCOc1nc(-c2ccccc2)c2cc(Cl)ccc2n1` belongs -1.9%; to `O=C(Nc1cccc(F)c1)[C@H]1CC=CC[C@H]1C(=O)O`, 9.1%. To `CCn1c2c(c3cc(C(C)(C)C)ccc31)CCCC2=O` belongs -5.1%; to `O=C(O)CCCCCN1C(=O)C(O)=C(C(=O)/C=C/c2ccccc2)C1c1ccccc1` (stereo unspecified), 4.7%. As for `COc1ccc(OCc2ccccc2)c(C=O)c1`, the figure is -3.2%; as for `CCOC(=O)c1c(NC(=O)c2ccco2)sc(C(=O)Nc2ccc(OC)cc2OC)c1C`, -12.9%; as for `COc1cc(C(=O)N/C(=C/c2ccc(Br)cc2)C(=O)NC(Cc2ccccc2)C(=O)O)cc(OC)c1OC` (stereo unspecified), 7.8%. As for `COc1ccc(C(=O)CC(c2cccs2)S(=O)(=O)c2ccccc2)cc1` (stereo unspecified), the displacement came to 17.9%.

On to `O=C(NCc1ccc2c(c1)OCO2)c1sc2ccccc2c1Cl`, for which the displacement was -6%. As for `COc1cccc(C2NC(=S)NC(C)=C2C(=O)Nc2cccc(Cl)c2)c1` (stereo unspecified), the figure is -14%; as for `Cc1ccc(-n2nc3ccc(NC(=S)NC(=O)c4ccco4)cc3n2)cc1`, 9%.

`CCOc1ccc(N(CC(=O)Nc2ccc(C)cc2C)S(C)(=O)=O)cc1`: the displacement is -4.2%. To `Cc1ccc(C(=O)Nc2cc(C)on2)cc1` belongs 7.7%; to `CCOC(=O)C1=C(CC)NC2=C(C(=O)CC(C)(C)C2)C1c1ccc(Cl)cc1Cl` (stereo unspecified), 10.8%. Regarding `COC(=O)c1ccc(COc2ccc3c4c(c(=O)oc3c2)CCC4)cc1`, the displacement worked out at 8.5%. To `Oc1c(Cl)cc(Br)cc1/C=N/Nc1nc(N2CCOCC2)nc(N2CCOCC2)n1` belongs 9.3%; to `COc1cc(C2C3=C(CC(C)(C)CC3=O)OC3=C2C(=O)CC(C)(C)C3)cc(Br)c1OC`, 2.8%; to `Cc1ccc(C=C2C(=O)N(C)C(=S)N(c3ccccc3)C2=O)s1`, 6.8%.

For `Cc1cccc(N/C=C/C(=O)c2ccc(Cl)cc2)c1`, the displacement was -2.2%.

For `O=C(CN1CCOCC1)Nc1ccc(-c2nc3cc(NC(=O)CN4CCOCC4)ccc3o2)cc1`, the displacement is -4.6%.

For the compound `O=C1NCCCc2nc(N3CCOCC3)sc21`, the displacement is -2.6%. To `CN(C)c1ccc(C2CC(c3cccs3)=NN2C(=O)CCC(=O)O)cc1` (stereo unspecified) belongs -17.8%.

The values are drawn from PubChem BioAssay AID1240 (Sanford-Burnham Center for Chemical Genomics, 2008).
